Test results from the supplement of paper PMC3334620.
Over roughly 33,000 sequences, “E-score (-0.5 to 0.5)” has its median near -0.013; the highest 2% begin near 0.3. The list shows a part of the results.

Each sequence was assayed against T1, Msn1 (UniProt P22148) (assay: PBM E-score (8-mer binding enrichment) (E-score (-0.5 to 0.5)); higher = stronger / more preferred TF binding; most listed sequences are background and not binding sites). Settings: protein concentration: 200 nM; construct: GST-full length.
T1 sequence: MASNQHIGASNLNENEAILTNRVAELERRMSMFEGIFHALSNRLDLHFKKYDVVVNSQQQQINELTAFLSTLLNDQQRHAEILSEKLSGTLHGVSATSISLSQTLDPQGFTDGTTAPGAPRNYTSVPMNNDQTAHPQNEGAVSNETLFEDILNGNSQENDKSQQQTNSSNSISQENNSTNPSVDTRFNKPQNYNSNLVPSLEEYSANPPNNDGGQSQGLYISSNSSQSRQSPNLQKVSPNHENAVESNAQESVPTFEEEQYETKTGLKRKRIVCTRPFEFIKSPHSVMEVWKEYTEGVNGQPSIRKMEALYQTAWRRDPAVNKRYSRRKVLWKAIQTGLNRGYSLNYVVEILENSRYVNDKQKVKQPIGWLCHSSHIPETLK
Method in brief: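 Masliner-normalised scans of fluorescent anti-GST signal were the basis for scoring. That signal came from GST-tagged yeast transcription factors applied at about 100-200 nM to double-stranded universal all-10-mer Agilent arrays on fresh or once-stripped slides. Each ungapped eight-base word, pooled with its reverse complement, received an E-score from the Universal PBM Analysis Suite.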

Sequence	PBM E-score
CGCAATGC	-0.00386
CTTAGTTC	-0.0195
ACCGTTCT	0.00836
GAATCTAC	-0.133
GAGTGCAA	0.0222
AAGACGGC	-0.159
CGAGAACC	0.124
CCCCTAGG	-0.292
GAGAGCAC	-0.121
GACAGTAC	0.0689
CCAGACTC	0.0222
TATAGTCA	0.124
GTATGGTA	-0.0163
AAGCTGAG	0.086
CTAAGAGA	-0.0121
ACTAAAAG	0.0984
GACACGCA	0.198
GCTAGATA	0.114
GCAGAAAC	0.0785
AGATCGCG	0.0682
AAGTTACG	0.0559
TACGTCTA	0.0407

Sequence	PBM E-score
GGCCGGGA	-0.0785
CAGATAGC	-0.114
AATCACAT	-0.135
AAGTACTT	0.1
AGGTCGTC	-0.0558
ACACAGCC	0.00572
GCTGCGAA	-0.0394
CGACACAA	0.00596
AGATCACT	0.185
GGTTCTTA	-0.0476
CAGTTGAG	-0.127
ACACACAT	0.275
GACTCTCA	-0.0981
GCCTCGGA	-0.0386
GTGCACCA	-0.0769
ACATAAGC	0.238
ATACTCAG	0.241
CCATGATA	-0.0239
AGAGACCT	-0.012
GATTCGGA	0.218
ACGTGTCG	0.0594
GCTAGGAC	0.267

Sequence	PBM E-score
TCCCTCAA	-0.0599
GGATATAA	0.0865
CCTACCCA	-0.139
CATTGGCC	-0.129
ATGGTCGC	-0.0326
CATCTAGA	0.0226
ACTTTTAG	0.0248
TGTTAACA	0.0928
GCGGTCCA	-0.127
GAGGTCAA	-0.0237
ATCCAACC	-0.184
GAAGAGGC	-0.265
AGCGTAGG	-0.267
CGTCCGGC	0.0711
CCGGTTCA	-0.16
AAACCGGT	-0.0293
AACATCCT	-0.223
GCTGGAGA	-0.218
GATGCCGA	0.0414
GGCGTGAC	-0.0885
ACACTTGC	-0.0547
GTATAACA	0.0025

Sequence	PBM E-score
AGACGGCT	-0.208
GCCGGGTA	-0.217
GCTGAGAC	0.0411
GATGCAAA	-0.127
CGAGCTAA	-0.0305
GCTAATGA	-0.0891
AGGCCTAT	-0.12
CCTTAGAA	0.117
GTTCACAA	0.0269
AAATGGTA	0.112
CTTGATCC	-0.163
AAAATGCC	0.186
GATAACTA	0.0365
CTAGCATA	0.00303
AACCCGTA	-0.2
AAGGAGTC	-0.142
CTGAGCGC	-0.245
ATTGACAC	-0.0107
GCTCGCCC	-0.104
AAATCTGC	0.0796
